The values that follow come from PubChem BioAssay AID1346428 (National Center for Advancing Translational Sciences (NCATS), 2018).

Structures are written as SMILES. Screen size: about 48,000 compounds; about 1,200 (2.5%) were called active. Not shown: some 2% with an inconclusive outcome.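 Rule for the calls: active = activation of at least 60% and not above a set upper limit (about 1 call in 100 departs from these limits); inconclusive = activation of 40% to 60%, or above that upper limit; inactive = activation under 40%.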 The list shows a part of the results.

UniProt O75388, sequence (O75388 whole entry, looked up): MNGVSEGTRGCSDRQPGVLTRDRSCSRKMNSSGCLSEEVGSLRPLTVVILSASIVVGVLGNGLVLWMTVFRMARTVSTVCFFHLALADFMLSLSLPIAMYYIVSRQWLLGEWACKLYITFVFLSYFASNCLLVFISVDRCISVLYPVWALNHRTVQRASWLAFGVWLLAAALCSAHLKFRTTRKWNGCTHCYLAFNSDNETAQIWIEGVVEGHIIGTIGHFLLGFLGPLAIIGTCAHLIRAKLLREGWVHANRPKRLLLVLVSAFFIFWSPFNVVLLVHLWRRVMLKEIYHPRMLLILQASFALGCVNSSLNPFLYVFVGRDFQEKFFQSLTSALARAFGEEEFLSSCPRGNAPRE

The experiment has as its target Probable G-protein coupled receptor 32 (Homo sapiens) (UniProt O75388). The experiment is described as follows: qHTS for Agonists of Human Resolvin D1 Receptor DRV1. Note: 0% is about no effect. Conditions: CHO-K1 GPR32 beta-arrestin PathHunter luminescence, 90 min; at 76.9 µM; active compounds read high; zero percent set by DMSO-only wells. The procedure, abridged:
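Readings come from a cell-based beta-arrestin complementation format: CHO-K1 GPR32 stable cells (2,500/well) treated 90 min with compounds, then beta-Gal substrate added for 1 h before chemiluminescence imaging.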
For orientation: In qHTS, concentration-response curves come from the screen itself.
With `COc1ccc(C)cc1NC(=O)CN(c1ccccc1)S(=O)(=O)N(C)C`, the activation is inactive: -11.7%.

As for `COc1ccc(/C=C\c2onc(C)c2S(=O)(=O)N2CCC(C(=O)Nc3ccc(C)cc3C)CC2)cc1`, the activation was inactive: -17.4%. Turning to `CCc1ccc(NC(=O)CSC2=Nc3ccccc3C3=NC(CCC(=O)NCCc4ccccc4)C(=O)N23)cc1` (centres undefined), the activation was inactive: -17.1%.

Turning to `CC1=C(C(=O)Nc2ccc(C)cc2C)C(c2ccc(O)cc2)n2nnnc2N1` (centres undefined), the activation was inactive: -1.97%.

As for `CCC12CN3CC(C)(CN(C1)C3c1c[nH]c3ccccc13)C2=O` (centres undefined), the activation is inactive: -5.45%. Take `CCC(=O)N1CCc2cc(S(=O)(=O)NC(CC(C)C)C(=O)Nc3cc(C)ccc3OC)ccc21` (centres undefined): the activation was inactive: -1.73%. The result for `O=C(Nc1ccc(F)cc1Cl)n1ncc2cc(Cl)ccc21` reads inactive: 8.34%; that for `CCCOc1ccc(C(=O)Nc2cccc(NC(=O)c3cccc(Cl)c3)c2)cc1`, inactive: 40%; that for `CCS(=O)(=O)c1ncc(N(Cc2ccco2)Cc2sccc2C)c(C(=O)Nc2ccc(C)cc2C)n1`, inactive: -20.4%. As for `Cc1ccc2c(c1)c(=O)c(C(=O)c1ccncc1)cn2CC(=O)Nc1c(C)cccc1C`, the activation is inactive: -5.06%. Consider `Cn1cc(S(=O)(=O)N2CCCCC2)cc1C(=O)N1CCN(c2ccc(F)cc2)CC1`, for which the activation was inactive: 4.06%. The result for `Cc1cc(=O)n(CC(=O)NCCC(C)C)c2c1c(C)nn2C` reads inactive: 29%; that for `CC(NC(=O)CN(C)S(=O)(=O)c1ccc2c(c1)c(=O)n(C)c(=O)n2C)c1ccccc1` (centres undefined), inactive: -18.7%. The result for `Cc1oc(-c2ccc(C(=O)NCc3ccc(N(C)C)cc3)cc2)nc1COc1ccccc1` reads inactive: -3.3%. In the case of `Cc1cc2c(=O)c(C(=O)c3ccncc3)cn(CC(=O)Nc3cccc(C)c3C)c2cc1C` it was inactive: -6.41%; in that of `Cc1ccc(C)c(S(=O)(=O)c2cnc(SCC(=O)Nc3ccc(F)cc3F)[nH]c2=O)c1`, inactive: 2.74%.

For the molecule `CCc1ccc(NC(=O)CSc2nccn2C2CCCC2)cc1`, the activation was inactive: 2.73%.

On to `COc1ccc(CCNC(=O)Cn2ncc3c(C)n(Cc4ccccc4F)c(C)c3c2=O)cc1OC`, for which the activation was inactive: -7.06%.

`COc1ccc(CCNC(=O)Cn2nc(C)n3c(cc4occc43)c2=O)cc1OC`: the activation was inactive: -21.9%. Turning to `CCOC(=O)c1c(S(=O)(=O)N2CCCC(C(=O)N3CCN(c4ccc(F)cc4)CC3)C2)c(C)n(C)c1C` (centres undefined), the activation is inactive: -0.173%.

On to `Cc1ccc(C)c(-c2csc(-c3c(N)c(C(=O)c4ccc5c(c4)OCO5)n4ccccc34)n2)c1`, for which the activation was inactive: -13.8%. The result for `CCN(CC)CCNC(=O)C1CCCN(c2ncnc3onc(C)c23)C1` (centres undefined) reads inactive: 4.27%; that for `Cc1c(C(N)=O)nnn1-c1ccc(Br)cc1`, inactive: 20.2%. On to `COc1ccc(NC(c2ccc(F)cc2)c2nnc(-c3ccccc3Cl)o2)cc1Cl` (centres undefined), for which the activation is inactive: -17.2%. Regarding `Cc1ccc2nc(N(Cc3cccnc3)C(=O)C3CCCCC3)sc2c1`, the activation is inactive: -0.293%.

On to `COc1ccc(Br)cc1C1CC(=O)Nc2c1c(C)nn2-c1nc(C)cc(C)n1` (centres undefined), for which the activation was inactive: -4.52%. The result for `CCn1cc(C(=O)OCC(=O)Nc2cc(Cl)ccc2OC)c(=O)c2ccc(C)nc21` reads inactive: 14.4%; that for `Cc1cccc(NC(=O)Cn2c(=O)oc3cc(S(=O)(=O)NCc4ccccc4)ccc32)c1`, active: 65.1%; that for `CCc1ccc2nc(N3CCC(C(=O)O)CC3)sc2c1`, inactive: 37.4%. For the molecule `COc1cc(CNCc2c(C(=O)O)c(C)n(Cc3cccc(Cl)c3)c2C)cc(OC)c1OC`, the activation was inactive: -15.9%. In the case of `CCc1cccc(NC(=O)CN2C(=O)CCc3cc(S(=O)(=O)N4CCOCC4)ccc32)c1` it was inactive: -11.2%; in that of `COc1ccc(Br)cc1CNC(=O)C(C)n1nc(C)n2c(cc3occc32)c1=O` (centres undefined), inactive: -9.96%. With `CCC(C(=O)N1CCN(c2cc(Cl)ccc2C)CC1)n1nc(C)n2c(cc3occc32)c1=O` (centres undefined), the activation is inactive: -9.46%. For `CCSc1nc2n(n1)C(c1ccc(CC)cc1)C(C(=O)Nc1ccccc1OC)=C(C)N2` (centres undefined), the activation is inactive: 15.1%. As to `Cc1c(Cl)cccc1-n1c(CCC(=O)O)ccc1-c1cccs1`, the activation was inactive: -13%. In the case of `CCN(CC)c1cc(C)nc2nc(-c3ccc(C)cc3)nn12` it was inactive: 2.24%; in that of `CN1CCCN=C1/C=C/c1cccs1`, inactive: -2.2%. In the case of `Cc1ccc2oc(C(=O)Nc3nnc(CC(C)C)s3)cc(=O)c2c1` it was inactive: 20.9%; in that of `COc1ccc(N2CCN(C(=O)c3cc4c(=O)n(Cc5ccccc5)ccc4nc3C)CC2)cc1`, inactive: -0.997%; in that of `Cc1ccc(CN2CCSc3ccc(C(=O)Nc4ccc(F)cc4F)cc32)cc1`, inactive: -31%.

As to `CCOc1ccccc1C(=O)NCc1ccc2c(c1)CCN2C(C)=O`, the activation was inactive: -19.8%. For the molecule `Cc1ccc(C2c3[nH]c4ccccc4c3CCN2C(=O)Nc2ccc(C)c(C)c2)cc1` (centres undefined), the activation is inactive: -30.2%. The result for `CCOC(=O)C(C)Sc1nnc2ccc3ccccc3n12` (centres undefined) reads inactive: -7.42%; that for `Cc1ccc(NC(=O)C(=O)NCc2ccc(Cl)cc2)cc1`, inactive: -7.31%. The result for `O=C(NCCc1ccc(Cl)cc1)c1ccc(CSCc2ccccc2Cl)o1` reads inactive: -20.4%.

In the case of `Cc1cccc(NC(=O)C2CCCN(S(=O)(=O)c3cccc4nonc34)C2)c1` (centres undefined), the activation was inactive: -13.9%.

As to `CC(=O)c1cccc(NC(=O)c2nc(-c3ccc(C)cc3)n3c2CCCCC3)c1`, the activation is inactive: 9.41%.

On to `Cc1ccc(S(=O)(=O)Nc2cccc(-c3ccc(N4CCCCC4)nn3)c2)s1`, for which the activation is inactive: 0.171%. In the case of `COc1ccc(C2(CNC(=O)C(=O)Nc3cccc(C(F)(F)F)c3)CCCC2)cc1OC` it was inactive: -15.6%. Consider `COc1cc(OC)c(NC(=O)CCn2cnc3onc(-c4ccc(F)cc4)c3c2=O)cc1Cl`, for which the activation was inactive: 13.4%. The result for `Cc1oc(-c2cccc(Cl)c2)nc1CN1CCC(C(=O)NCCCN2CCN(c3cccc(Cl)c3)CC2)CC1` reads inactive: 40.4%; that for `Nc1cc(=O)nc(SCC(=O)Nc2ccc(F)cc2)n1-c1ccc(Cl)cc1`, inactive: -44.9%; that for `CCOc1ccc(NC(=O)N(Cc2c[nH]c3ccccc23)C2CCCCC2)cc1`, inactive: -8.32%. In the case of `CCC[C@@H]1C[C@@H](C(=O)N[C@@H]([C@H]2O[C@H](SC)[C@H](O)[C@@H](O)[C@H]2O)[C@@H](C)O)N(C)C1` it was inactive: -4.44%.
